From PubChem BioAssay AID938 (National Center for Advancing Translational Sciences (NCATS), 2007)
Values joined by “and” are separate entries in the source; they are usually repeats but may differ in a detail not shown here. Equal entries are not always repeated. The campaign covered roughly 73,000 compounds. About 1,800 (2.5%) were called active. About 13% were inconclusive and are not listed. Calls come from the whole dose curve; as a rule, active = well fitted activation curve with a large enough effect; inconclusive = small, poorly fitted or top-dose-only effect; inactive = no such curve, though single readings can be large or run the other way. This is a selection; strong and weak results do not stand in their true shares.

Assay: qHTS Assay for Agonists of the Thyroid Stimulating Hormone Receptor: Activators of Intracellular cAMP Concentrations in Parental HEK 293; note: nearly all actives have a fitted effect of over 55% in size; for activation: % of control where 0% means no effect
Conditions: parental HEK293 CNG cAMP sensor, membrane potential fluorescence; series mostly up to 57.1 µM; activation: at the top concentration
Outline: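 Parental HEK 293 cells stably expressing a modified CNG channel (no TSHR) report cAMP rise as membrane depolarization. Membrane potential dye with 100 uM RO 20-1724 was loaded for 60 min at room temperature, then compound added for 30 min; fluorescence read at 590 nm.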
Potency is the fitted concentration of half-maximal effect.

Row | Structure (SMILES) | activation | Potency
1 | CCOC(=O)c1cc2cc(F)ccc2nc1C | inactive: 8.35% | 
2 | O=C(O)c1cc(O)c2c(c1)C(=O)c1cccc(O)c1C2=O | inactive: -21.5% | 
3 | O=[N+]([O-])c1ccccc1S(=O)(=O)NCC1CCC(CNCC2CCc3ccccc3C2)CC1 (centres undefined) | inactive: -92.3% | 
4 | O=C(NCc1ccc2c(c1)OCO2)c1nn(-c2ccccc2)c(=O)c2ccccc12 |  | active: 25.1 µM
5 | Cc1cc2c(nn1)CCC/C2=N\O | inactive: -65.5% | 
6 | O=C(O)CN(CC(=O)O)CC(=O)O | inactive: 27.5% | 
7 | CO/N=C(\C(=O)N[C@@H]1C(=O)N2C(C(=O)O)=C(COC(N)=O)CS[C@@H]12)c1ccco1 | inactive: 1.08% [at 25.6 µM] | 
8 | c1coc(-c2nc3nc4ccccc4n3nc2-c2ccco2)c1 | inactive: -37.8% | 
9 | COc1ccc(Cn2nnnc2C(C(C)C)N2CCN(c3ccccc3OC)CC2)cc1 (centres undefined) |  | active: 12.6 µM
10 | Cc1ccc(N(C)C)cc1 | inactive: 8.57% | 
11 | CCCCC1CN2C(CCC(C)C2c2ccc(Br)cc2)C(=O)O1 (centres undefined) | inactive: 28.3% [at 11.4 µM] and inactive: 23.8% [at 11.4 µM] and inactive: 15.3% [at 11.4 µM] | 
12 | COc1cc2c(cc1O)CCC1C2CC[C@@]2(C)C1CC[C@@H]2O (some centres undefined) | inactive: 22.5% | 
13 | COC(=O)c1[nH]c2ccc(Br)cc2c1NC(=O)C(C)N1CCN(C2CCCCC2)CC1 (centres undefined) | inactive: -77.7% | 
14 | CCCCC#Cc1nc(N)c2ncn([C@@H]3O[C@@H](C(=O)NCC)[C@H](O)[C@@H]3O)c2n1 |  | active: 2 µM
15 | CC(Sc1ncc(C#N)c(N)n1)C(=O)Nc1ccccc1 (centres undefined) |  | active: 31.6 µM
16 | NC(N)=NC(N)=NCCc1ccccc1 | inactive: 12.7% | 
17 | Cn1c(-c2ccc3c(c2)OCO3)cnc1NCc1ccc(Cl)cc1 | inactive: -65.1% | 
18 | COc1ccc(C(c2nnnn2C2CCCC2)N2CCc3ccccc3C2)cc1OC (centres undefined) |  | active: 7.94 µM
19 | COCCn1c(SCc2csc(-c3ccccc3)n2)nc2ccccc21 |  | active: 31.6 µM
20 | C=CCOC(=O)C(C#N)c1nc2ccccc2nc1N1CCN(Cc2ccccc2)CC1 (centres undefined) | inactive: -64.4% | 
21 | CCC(=O)Nc1nonc1-c1nc2ccccc2n1CC(C)C |  | active: 25.1 µM
22 | C=CCn1c(SCC(=O)Nc2nc(C)cs2)nnc1C(CO)NC(=O)c1ccccc1 (centres undefined) | inactive: -42.8% | 
23 | Oc1cc(O)c2c(c1)O[C@H](c1ccc(O)c(O)c1)[C@H](O)C2 | inactive: 1.52% [at 25.6 µM] | 
24 | CCOC(=O)C(Cc1ccccc1)NS(=O)(=O)c1ccc(NC(C)=O)cc1 (centres undefined) | inactive: -5.22% | 
25 | O=C(CC1N=C2c3ccccc3N=C(SCc3ccccc3Cl)N2C1=O)NCc1ccco1 (centres undefined) |  | active: 15.8 µM
26 | CCC(C)O (centres undefined) | inactive: -9.18% | 
27 | Nc1ccn([C@H]2CC[C@@H](CO)O2)c(=O)n1 | inactive: 23.5% | 

Row | Structure (SMILES) | activation | Potency
28 | CSc1nnc2c3cc(C)ccc3n(Cc3ccccc3)c2n1 |  | active: 15.8 µM
29 | COCC(C)OC(=O)C(C#N)c1nc2ccccc2nc1N1CCN(Cc2ccccc2)CC1 (centres undefined) | inactive: -33% | 
30 | C=CCNC(N)=S | inactive: 2.87% | 
31 | Cc1ccc(C)c(N2CCN(C(=O)C3CCCN(S(=O)(=O)c4c(C)[nH]c(=O)[nH]c4=O)C3)CC2)c1 (centres undefined) | inactive: -58.1% | 
32 | CC1CCCCC12NC(=O)N(CC(=O)NCCc1ccccn1)C2=O (centres undefined) | inactive: -61.9% | 
33 | O=c1[nH]c2cc([N+](=O)[O-])c([N+](=O)[O-])cc2[nH]c1=O | inactive: 2.52% | 
34 | CC(=O)/C(C)=N\O | inactive: -3.42% | 
35 | O=C(CCc1ccc(O)cc1)c1c(O)cc(O)cc1O |  | inactive
36 | COC(=O)Nc1nc2ccc(C(=O)c3cccs3)cc2[nH]1 |  | inactive
37 | C[C@](O)(C(=O)Nc1ccc(S(=O)(=O)c2ccccc2)cc1)C(F)(F)F | inactive: -31.6% | 
38 | COc1ccc(N2CCN(c3oc(COc4ccccc4)nc3C#N)CC2)cc1 |  | active: 0.794 µM
39 | Cc1c(N(C)C)c(=O)n(-c2ccccc2)n1C |  | inactive
40 | CCCc1c(-c2ccc(O)cc2)nn(-c2ccc(O)cc2)c1-c1ccc(O)cc1 | inactive: 9.19% | 
41 | Cc1ccc2cc(CN(C(=O)c3ccncc3)C(C)C)c(=O)[nH]c2c1 | inactive: -0.544% | 
42 | O=C(NCc1ccccc1)[C@H]1C[C@@H]1[C@H](NP(=O)(c1ccccc1)c1ccccc1)c1ccccc1 | inactive: 21.5% | 
43 | CCCCCCCCN | inactive: -26.1% | 
44 | NC/C=C\C(=O)O |  | inactive
45 | Cn1cc(-c2nc3cnc(N4CCNCC4)nc3n(CCc3ccccc3)c2=O)c2ccccc21 | inactive: -38.7% | 
46 | COc1ccccc1CNc1ncnc2ccc(-c3ccoc3)cc12 |  | active: 20 µM
47 | Clc1ccc(Cn2nnc(-c3ccc(CN4CCOCC4)cc3)n2)cc1 |  | active: 31.6 µM
48 | NCCc1cnc[nH]1 | inactive: -4.8% | 
49 | CC(C)C(=O)Nc1cccc(C(=O)NCc2ccc(S(N)(=O)=O)cc2)c1 | inactive: -1.01% | 
50 | O=C(NCc1cccs1)c1cnc2sccn2c1=O | inactive: 16.7% | 
51 | CCC(=O)NC(C)C(c1cccs1)N1CCOCC1 (centres undefined) | inactive: -38.9% | 
52 | CCC(C)c1ccc(NC(=O)CC(C)=O)cc1 (centres undefined) | inactive: -53.9% | 
53 | Cc1nn(-c2ccc(Cl)cc2)c2sc(C(=O)N3CCN(c4ccccn4)CC3)cc12 | inactive: 4.48% | 
54 | NS(=O)(=O)c1cc2c(cc1Cl)NC=NS2(=O)=O | inactive: -8.59% | 
